Experimental data reported in the RNAGym collection of RNA variant scans (doi:10.7554/elife.90254).
The source gives no read counts; variants with many changes may rest on few reads.

B1: LINE1-mini (parent)
chain: GGCAGAGCUCAACACAGCGUGGCAAAGUGGCUGUGGCUAGACUGCC

Variants of: B1
Test: self-cleavage, relative activity (ratio to wild type); higher = more cleavage; in vitro, sequencing; the parent is a self-cleaving ribozyme

Variant	self-cleavage
G7U U9G C13U G30A	0.06
G7U U9G C15G G33U C42A	0.03
G7U U9G C15U	0.04
G7U U9G G22C G29C C42A	0.01
G7U U9G G29U C37U A39C	0.03
G7U U9G U28C U32G G33U C37G C46U	0.04
G7U U9G U32G G36A A41G	0
G7U U20A A39G C46U	0.02
G7U U20A G29A A39C C46A	0.16
G7U U20A G29U A41U U43A	0.02
G7U U20A G30A	0.01
G7U U20C C37A	0.02
G7U U20C C42A	0.02
G7U U20C C42G	0.05
G7U U20G C37U C45G	0.03
G7U U20G C42G	0.07
G7U U20G U38C G44A	0.02
G7U U28A C42A	0.02
G7U U28A C46G	0.05
G7U U28C G29C C31G	0
G7U U32C C42U	0.3

Variant	self-cleavage
G7U U32C G35A	0.03
G7U U34A G40U	0.08
G7U U34G C42U	0.07
G7U U43A C45G	0.06
G7U U43A C46A	0.24
C8A A11C A14C G44C	0.01
C8A A11C A24G G36A	0.05
C8A A11C A24U C31U	0.02
C8A A11C G19C U20A	0.01
C8A A11C G29A U38A	0.01
C8A A11G A12U	0.02
C8A A11G A14U	0.04
C8A A11G A24C C31U A39G	0.02
C8A A11G A25C	0.01
C8A A11G C18G G21C C23U A24U A26C G30A	0.02
C8A A11G C31A	0.02
C8A A11G G27C G40C	0.02
C8A A11G G35A G44A	0.01
C8A A11G G40A	0.01
C8A A11U A16U G21U C42G	0.01
C8A A11U C18G G40C	0.01

Variant	self-cleavage
C8A A11U G19A G33A	0.01
C8A A11U G21C	0.03
C8A A11U G27A	0.03
C8A A11U G27U G30C G35U C37U C42U	0
C8A A11U G30A	0.01
C8A A11U G30C	0.02
C8A A11U G30U G33U	0.02
C8A A11U G36C U38G	0
C8A A12C A24G C46A	0.06
C8A A12C A25G	0.08
C8A A12C A25U	0.01
C8A A12C G19A A25C U34A G44A C46A	0.01
C8A A12C G27C G40C	0.07
C8A A12C G29C	0.04
C8A A12C G30A C37A	0.01
C8A A12C U28C U34G	0.03
C8A A12G C15A A26C G29U A41G	0.06
C8A A12G C37U G44U	0.18
C8A A12G G22A A39G	0.04
C8A A12G G29A G36A	0.05
C8A A12U A16U G36U	0.04

Variant	self-cleavage
C8A A12U C13A C42A	0.12
C8A A12U C13U C23A G44A	0.07
C8A A12U C23U C45U	0.27
C8A A12U C37G	0.09
C8A A12U C42U	0.03
C8A A12U G17U G21A A26C C31G	0.41
C8A A12U G35U	0.1
C8A A12U G36U	0.22
C8A A12U U28G G29U	0.13
C8A A14C A26C G29U G35A U38G	0.01
C8A A14C C15G A25C A41G	0.06
C8A A14C C18A C23U G29A U38A	0.05
C8A A14C C18U G30A	0.12
C8A A14C G19U	0.04
C8A A14C G33U C37A A39C A41G	0.03
C8A A14G C31U	0.04
C8A A14G C42G	0.22
C8A A14G G19A U32A	0.03
C8A A14G G27U G33A A41U	0.16
C8A A14G G40U	0.1
